Screen size: about 310,000 compounds; about 14,000 (4.5%) showed an effect of 50% or more. Effects have a minus sign here. The list shows a part of the results.
target: human ether-à-go-go-related gene (hERG) potassium channel (human, UniProt Q12809); test: primary screen, population patch clamp on CHO cells stably expressing hERG
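Also: peak tail current of the secondary pulse compared with the same well before compound.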

human ether-à-go-go-related gene (hERG) potassium channel, sequence (Q12809 whole entry, looked up): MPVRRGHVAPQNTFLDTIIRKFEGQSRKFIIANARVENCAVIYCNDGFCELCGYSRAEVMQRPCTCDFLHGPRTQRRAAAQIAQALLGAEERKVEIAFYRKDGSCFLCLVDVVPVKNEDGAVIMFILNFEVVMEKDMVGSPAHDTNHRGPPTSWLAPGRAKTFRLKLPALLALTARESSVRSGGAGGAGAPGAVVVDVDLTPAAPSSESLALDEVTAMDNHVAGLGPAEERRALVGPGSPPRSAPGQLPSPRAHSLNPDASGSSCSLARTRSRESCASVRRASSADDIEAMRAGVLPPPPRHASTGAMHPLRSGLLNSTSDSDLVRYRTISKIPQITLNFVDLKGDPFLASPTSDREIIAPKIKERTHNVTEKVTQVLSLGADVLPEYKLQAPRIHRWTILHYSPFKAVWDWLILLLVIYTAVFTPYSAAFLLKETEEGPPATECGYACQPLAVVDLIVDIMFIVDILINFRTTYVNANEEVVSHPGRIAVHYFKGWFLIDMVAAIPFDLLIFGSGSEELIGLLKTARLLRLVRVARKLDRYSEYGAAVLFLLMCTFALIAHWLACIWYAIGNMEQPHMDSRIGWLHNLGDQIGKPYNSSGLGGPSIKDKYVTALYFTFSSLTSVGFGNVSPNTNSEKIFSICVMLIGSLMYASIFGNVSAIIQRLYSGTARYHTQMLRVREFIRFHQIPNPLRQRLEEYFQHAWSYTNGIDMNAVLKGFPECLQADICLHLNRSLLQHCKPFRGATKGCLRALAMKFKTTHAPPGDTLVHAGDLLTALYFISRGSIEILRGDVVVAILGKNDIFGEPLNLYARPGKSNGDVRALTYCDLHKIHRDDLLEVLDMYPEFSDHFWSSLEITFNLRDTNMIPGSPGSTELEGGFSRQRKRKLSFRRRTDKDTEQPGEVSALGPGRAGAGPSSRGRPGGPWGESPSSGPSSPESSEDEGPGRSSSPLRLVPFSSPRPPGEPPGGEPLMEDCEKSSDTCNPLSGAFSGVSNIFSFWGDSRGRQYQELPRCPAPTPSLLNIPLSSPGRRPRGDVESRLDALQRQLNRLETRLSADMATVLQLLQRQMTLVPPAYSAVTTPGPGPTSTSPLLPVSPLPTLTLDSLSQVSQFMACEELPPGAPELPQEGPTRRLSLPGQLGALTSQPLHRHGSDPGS

SMILES	hERG current change (%, negative = inhibition) at 10uM
CCOC(=O)COc1ccccc1/C=N\NC(=O)c1cc2c(ccc3ccccc32)o1	20.3%
COc1ccc(OCC(=O)N2CCN(S(=O)(=O)c3ccc(Cl)s3)CC2)cc1	-0.573%
N/C(=N\O)c1ccc(NC(=O)c2cccs2)cc1	6.68%
c1ccc(CCc2ccncc2)cc1	12%
Cc1cc(=O)oc2c3c(cc(OCC(=O)NCCN4CCOCC4)c12)OC(C)(C)CC3	5.91%
COc1ccccc1CNc1nc(SC)ncc1CO	-12.5%
O=C(Cc1cccs1)Nc1nc(-c2ccc(F)cc2F)cs1	-4.34%
CN(C)c1ccc(C=C2C(=O)NC(=O)NC2=O)cc1[N+](=O)[O-]	30.8%
FC(F)(F)c1ccc(N/N=C/c2cccnc2)nc1	-10.5%
COC(=O)c1c(-c2ccc(OC)cc2)sc2ccccc12	3.29%
COc1ccccc1/C=N/NC(=O)c1ccc(NC(=O)c2cccc([N+](=O)[O-])c2)cc1	9.83%
CCO[C@H]1OC(C(=O)N2CCN(Cc3ccc4c(c3)OCO4)CC2)=C[C@@H](C2CC2)[C@@H]1CCCO	-10.7%
CCc1ccc(-n2c(C)cc(/C=N/NC(=O)c3ccncc3)c2C)cc1	-4.97%
Cc1ccc(S(=O)(=O)N(C)CC(=O)NC2CCCC2)cc1	-2.71%
CCCCNCC(=O)Nc1ccc(NC(=O)CNCCCC)cc1	20.4%
O=C1C2C3C=CC([C@@H]2C(=O)N1Cc1cccnc1)C31CC1 (stereo partly drawn)	4.5%
CC(=O)N(Cc1ccc(Br)cc1)c1ccccc1C(=O)O	6.81%
Nc1cc(=O)[nH]n1C1CCN(c2ccccc2)CC1	15.2%
CCCCc1nnc(NC(=O)CCN2C(=O)C3CC=CCC3C2=O)s1 (stereo not drawn)	-1.38%
CC(O)CNc1ccc([N+](=O)[O-])c2cccnc12 (stereo not drawn)	-18.6%
O=C1COc2ccc(C(=O)COC(=O)c3c(F)cccc3Cl)cc2N1	2.35%
Cc1ccc(S(=O)(=O)N2CCCN(C(=O)OC(C)(C)C)CC2)cc1	2.43%
Cc1cc(C(=O)NCc2cccnc2)no1	-0.671%

SMILES	hERG current change (%, negative = inhibition) at 10uM
CC(C)c1ccc(NC(=O)C2CC(=O)N(C(C)C)C2)cc1 (stereo not drawn)	-2.82%
CC(=O)Nc1cccc(NC(=O)c2ccc([N+](=O)[O-])cc2Cl)c1	-3.49%
CCC(Sc1ncccc1C(=O)OC(C)C)C(=O)NCc1ccco1 (stereo not drawn)	-9.18%
COc1cccc(NC(=O)CN(C)C(=O)CC2CC3CCC2C3)c1 (stereo not drawn)	-10.6%
CC1CC(C)CN(C(=O)COC(=O)c2nn(C)c(=O)c3ccccc23)C1 (stereo not drawn)	-37.2%
C[C@]1(C2CCCC2)Cc2cc(OCC(=O)O)c(Cl)c(Cl)c2C1=O	-0.892%
CN(Cc1ccc(Cl)cc1Cl)C(=O)c1cc(=O)c2ccccc2o1	-53.4%
CCOC(=O)c1ccc(NC(=O)Nn2cnnc2)cc1	25.6%
Cc1oc(-c2cccs2)nc1CSCC(=O)NC1CC1	-3.82%
CCOc1ccc(NC(=O)CC2C(=O)N(c3ccc(OC)cc3)C(=O)N2CCc2ccc(OC)c(OC)c2)cc1 (stereo not drawn)	-16.9%
Cc1cc2ccccc2n1CCNC(=O)c1ccccc1	10.3%
Cc1nnc(C)n1/N=C/C=C/c1ccccc1	8.4%
Cc1csc(NC(=O)c2c(-c3ccccc3)noc2C)n1	20.3%
COC(=O)CCC(=O)Nc1ccc(N=Nc2ccccc2)cc1	28.7%
COc1cc([N+](=O)[O-])cc(/C=N/NC(=O)Cn2nccc2C)c1O	4.45%
CC12CCC(c3c(C(=O)N4CCOCC4)nn(-c4ccccc4)c31)C2(C)C (stereo not drawn)	-18.3%
Cc1sc(NC(=O)C2=COCCO2)c(C#N)c1C	12.1%
CCC(C(=O)OC)n1cnc2scc(-c3ccc(C)c(C)c3)c2c1=O (stereo not drawn)	6.51%
Cl.Oc1cc2c(cc1O)C(c1ccccc1)CNCC2 (stereo not drawn)	-3.82%
COc1ccc(CCC(=O)OCC(=O)Nc2c(C)nn(-c3ccccc3)c2C)cc1	-14.2%
CCS(=O)(=O)N1N=C(c2cccc(NS(C)(=O)=O)c2)CC1c1cccs1 (stereo not drawn)	-34.3%
CCn1c(SCC(=O)Nc2nc(C)cs2)nnc1-c1ccoc1C	-1.96%

Source: article PMC4336329 (PLoS ONE, 2015)
